Among all 310,000 compounds or so, about 14,000 (4.5%) showed an effect of 50% or more. Effects have a minus sign here. The list shows a part of the results.
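Further: peak tail current of the secondary pulse compared with the same well before compound.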

The target in the assay is human ether-à-go-go-related gene (hERG) potassium channel (human, UniProt Q12809). The assay can be described thus: primary screen, population patch clamp on CHO cells stably expressing hERG.
Chain of human ether-à-go-go-related gene (hERG) potassium channel (Q12809 whole entry, looked up): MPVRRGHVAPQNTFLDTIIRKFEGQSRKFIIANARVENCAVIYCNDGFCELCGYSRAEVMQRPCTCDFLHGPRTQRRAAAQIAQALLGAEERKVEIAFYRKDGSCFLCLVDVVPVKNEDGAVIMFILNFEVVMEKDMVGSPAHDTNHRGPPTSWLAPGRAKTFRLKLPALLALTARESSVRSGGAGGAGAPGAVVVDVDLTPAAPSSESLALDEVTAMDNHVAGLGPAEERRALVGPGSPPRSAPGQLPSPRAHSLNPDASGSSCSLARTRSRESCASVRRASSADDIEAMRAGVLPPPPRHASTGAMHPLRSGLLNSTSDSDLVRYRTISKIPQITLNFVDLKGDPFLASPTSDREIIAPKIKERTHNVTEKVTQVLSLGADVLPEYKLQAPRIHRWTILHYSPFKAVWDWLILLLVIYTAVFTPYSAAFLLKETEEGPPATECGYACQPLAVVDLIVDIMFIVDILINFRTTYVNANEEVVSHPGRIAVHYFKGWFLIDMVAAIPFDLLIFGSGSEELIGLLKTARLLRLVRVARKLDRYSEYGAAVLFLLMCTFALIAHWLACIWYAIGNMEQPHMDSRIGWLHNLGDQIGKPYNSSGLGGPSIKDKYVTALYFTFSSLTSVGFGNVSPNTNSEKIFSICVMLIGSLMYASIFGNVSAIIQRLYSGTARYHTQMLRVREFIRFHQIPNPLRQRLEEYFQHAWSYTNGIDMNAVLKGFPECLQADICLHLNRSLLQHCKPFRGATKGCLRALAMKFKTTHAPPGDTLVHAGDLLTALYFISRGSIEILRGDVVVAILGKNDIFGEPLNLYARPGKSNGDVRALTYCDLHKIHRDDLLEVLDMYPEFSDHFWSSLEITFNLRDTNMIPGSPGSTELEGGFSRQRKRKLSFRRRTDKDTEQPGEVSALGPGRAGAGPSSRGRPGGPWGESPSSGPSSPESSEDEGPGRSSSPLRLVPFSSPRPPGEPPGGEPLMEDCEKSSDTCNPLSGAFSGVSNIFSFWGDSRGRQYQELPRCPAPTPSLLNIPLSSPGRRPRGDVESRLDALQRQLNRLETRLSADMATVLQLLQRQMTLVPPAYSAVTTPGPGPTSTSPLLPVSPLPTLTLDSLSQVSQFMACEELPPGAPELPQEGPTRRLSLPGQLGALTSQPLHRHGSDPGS
`Cc1ccc(/C=N/NC(=O)C2(C)CC2(Br)Br)cc1` (stereo not drawn): the “hERG current change (%, negative = inhibition) at 10uM” value is 11.7%.

On to `COc1ccc(/C=N/n2c(-c3n[nH]c4c3CCC4)n[nH]c2=S)cc1OC`, for which the “hERG current change (%, negative = inhibition) at 10uM” value turned out to be 14%.

Consider `O=C(NCCCn1ccnc1)c1ccc(Cl)cc1[N+](=O)[O-]`, for which the “hERG current change (%, negative = inhibition) at 10uM” value is reported as -25.4%.

In the case of `CC(=O)N/N=C(\C)CC(=O)Nc1cccc(C(F)(F)F)c1`, the “hERG current change (%, negative = inhibition) at 10uM” value came to 4.47%.

Take `COc1ccc(-c2cc(C3CCN(c4cc(Cl)nc(N)n4)CC3)[nH]n2)cc1`: the “hERG current change (%, negative = inhibition) at 10uM” value is reported as -22.5%.

As for `Cc1cc(C(=O)COC(=O)CC2Sc3ccccc3NC2=O)c(C)n1-c1ccc2c(c1)OCO2` (stereo not drawn), the “hERG current change (%, negative = inhibition) at 10uM” value is -4.58%.

Take `CC(=O)Oc1ccc(NC(=O)Cc2ccccc2)c(C(=O)O)c1`: the “hERG current change (%, negative = inhibition) at 10uM” value is 9.3%.

For `Cc1cccc(NC(=O)C2CCN(C(=O)c3ccccc3C)CC2)n1`, the “hERG current change (%, negative = inhibition) at 10uM” value was -17.6%.

In the case of `CC1CCCC(NC(=O)CSc2nccn2C)C1C.Cl` (stereo not drawn), the “hERG current change (%, negative = inhibition) at 10uM” value was determined as 0.951%.

`O=C(Nc1nc(-c2cccc3ccccc23)cs1)c1cnccn1`: the “hERG current change (%, negative = inhibition) at 10uM” value is listed as 11.6%.

With `COc1ccc(C(=O)NC(CO)c2nnc(SCc3ccc(Cl)c(Cl)c3)n2C)cc1` (stereo not drawn), the “hERG current change (%, negative = inhibition) at 10uM” value was -18.1%.

In the case of `CCc1ccc(N2CC(C(=O)OC)CC2=O)cc1` (stereo not drawn), the “hERG current change (%, negative = inhibition) at 10uM” value is given as -0.179%.

On to `Cc1ccc(NC(=O)C2CC(=O)N(c3ccc4c(c3)OCCO4)C2)cc1S(=O)(=O)N1CCCCCC1` (stereo not drawn), for which the “hERG current change (%, negative = inhibition) at 10uM” value worked out at 0.997%.

Regarding `Oc1[nH]c2ccc(Br)cc2c1N=NC(=S)NCC1CCCO1` (stereo not drawn), the “hERG current change (%, negative = inhibition) at 10uM” value is listed as -7.35%.

In the case of `Cc1nn(C(C)(C)C)c(OC(=O)c2ccco2)c1Sc1ccccc1`, the “hERG current change (%, negative = inhibition) at 10uM” value is listed as -0.866%.

Regarding `CC1=CCC2C(=O)N(Cc3ccccc3)C(=O)C2C1` (stereo not drawn), the “hERG current change (%, negative = inhibition) at 10uM” value is -1.1%.

For `CN1C(=O)/C(=C/c2ccc(OCc3ccc(F)cc3)cc2)N(C)C1=S`, the “hERG current change (%, negative = inhibition) at 10uM” value is given as 10.8%.

As to `COc1cccc(/C=N/Nc2nc3ccccc3n3cnnc23)c1`, the “hERG current change (%, negative = inhibition) at 10uM” value is listed as 4.59%.

Consider `O=[N+]([O-])c1ccc(N=NNc2ccccc2)cc1`, for which the “hERG current change (%, negative = inhibition) at 10uM” value is on record as 13.8%.

`COc1ccc(CN2CCN(Cc3ccccc3F)CC2)cc1OC.O=C(O)C(=O)O`: the “hERG current change (%, negative = inhibition) at 10uM” value is given as -22.6%.

As to `CC1(C)Cc2c(c(-c3ccco3)[nH]c(=O)c2C#N)CO1`, the “hERG current change (%, negative = inhibition) at 10uM” value is 11.5%.

On to `Cc1csc(C)[n+]1CC(=O)c1ccccc1.[Br-]`, for which the “hERG current change (%, negative = inhibition) at 10uM” value came out at 19.7%.

Turning to `Cc1cc(-c2ccccc2)nc2cc(C(N)=O)nn12`, the “hERG current change (%, negative = inhibition) at 10uM” value amounted to 9.45%.

As for `O=C(CNC(=O)c1ccccc1Cl)OC1CCOC1=O` (stereo not drawn), the “hERG current change (%, negative = inhibition) at 10uM” value is recorded as 13.5%.

With `O=C(CSc1cn(CCNC(=O)c2ccc3ccccc3c2)c2ccccc12)NCc1ccco1`, the “hERG current change (%, negative = inhibition) at 10uM” value is recorded as 1.26%.

`O=c1cc2c(nn1Cc1ccc(F)cc1)-c1ccccc1CC2`: the “hERG current change (%, negative = inhibition) at 10uM” value is -61.3%.

Consider `CC(=O)N1CCc2cc(S(=O)(=O)CCC(=O)O)ccc21`, for which the “hERG current change (%, negative = inhibition) at 10uM” value came to 7.4%.

On to `Cc1nc(N)c(Br)c(C)c1Br`, for which the “hERG current change (%, negative = inhibition) at 10uM” value is listed as -9.31%.

As for `CCOc1ccc(C(C)NC(=S)NCc2ccc(Cl)cc2)cc1` (stereo not drawn), the “hERG current change (%, negative = inhibition) at 10uM” value is on record as 13.6%.

As for `CN(CC(=O)Nc1ccc(S(N)(=O)=O)cc1)c1ccccc1`, the “hERG current change (%, negative = inhibition) at 10uM” value worked out at 4.85%.

Take `O=S(=O)(Cc1ccccc1)N1CCN(c2ncccn2)CC1`: the “hERG current change (%, negative = inhibition) at 10uM” value turned out to be 11.6%.

Turning to `CN(C)c1ccc(CN(C)C2CCCCC2)cc1`, the “hERG current change (%, negative = inhibition) at 10uM” value was 2.72%.

`Cc1ccc(C)c(C(C)NC(=S)NCc2ccc(F)cc2)c1` (stereo not drawn): the “hERG current change (%, negative = inhibition) at 10uM” value is recorded as 22%.

`CCOC(=O)NC(=O)CSc1nnnn1-c1ccc(C)cc1`: the “hERG current change (%, negative = inhibition) at 10uM” value is listed as -3.17%.

Take `O=C(NCCN1CCN(C(=O)NC2CCCCC2)CC1)NC1CCCCC1`: the “hERG current change (%, negative = inhibition) at 10uM” value amounted to 9.87%.

In the case of `FC(F)(F)c1cnc(Sc2ncn[nH]2)c(Cl)c1`, the “hERG current change (%, negative = inhibition) at 10uM” value amounted to 4.22%.

On to `CNC(=O)c1c(NC(=O)CCS(=O)(=O)c2ccc(F)cc2)sc(C)c1C`, for which the “hERG current change (%, negative = inhibition) at 10uM” value is recorded as -8.22%.

As to `Cc1c(CC(=O)N2C[C@H]3C[C@@H](C2)c2cccc(=O)n2C3)c(=O)oc2cc3occ(C(C)(C)C)c3cc12`, the “hERG current change (%, negative = inhibition) at 10uM” value was -73.4%.

In the case of `Cc1nnc(NC(=O)CSc2nccn2C)s1`, the “hERG current change (%, negative = inhibition) at 10uM” value is recorded as 11.8%.

In the case of `CNC(=O)c1ccc(Nc2nnc(-c3ccc(O)cc3)c3ccccc23)cc1`, the “hERG current change (%, negative = inhibition) at 10uM” value is reported as -0.39%.

Regarding `O=C(N/N=C1/CCCc2ccccc21)C(c1ccccc1)c1ccccc1`, the “hERG current change (%, negative = inhibition) at 10uM” value is -6.6%.

As for `CN(C(=O)CCn1c(=S)oc2ccccc21)c1ccc(F)cc1`, the “hERG current change (%, negative = inhibition) at 10uM” value is recorded as -8.13%.

Take `CCOc1ccc(-n2c(=O)cc(N3CCN(c4ccc(F)cc4)CC3)[nH]c2=O)cc1`: the “hERG current change (%, negative = inhibition) at 10uM” value is recorded as 9.15%.

Turning to `CN(CC(=O)Nc1ccccc1Cl)C(=O)CSc1nncn1C`, the “hERG current change (%, negative = inhibition) at 10uM” value came to 5.09%.

Turning to `S=C(NC1CCCC1)NN1CCOCC1`, the “hERG current change (%, negative = inhibition) at 10uM” value was 11.9%.

The record behind these values is PMC4336329 (PLoS ONE, 2015).
